This is one part of the list. Single values of this set are uncertain. Values with irradiation are relative to irradiated vehicle.

For the test, the system named is A549-Dual. Kind of test: ISRE reporter (Lucia luciferase) activity, viability-corrected, relative to vehicle (fold change vs vehicle); higher = more activation of STING-IRF / NF-kB immune response reporter. To be noted: 10 µM; irradiation: none.
On to `CC(C)(Oc1ccc(C(=O)c2ccc(Cl)cc2)cc1)C(=O)[O-].C[N+](C)(C)CCO` [Choline Fenofibrate], for which the ISRE reporter is 0.475. Regarding `NS(=O)(=O)c1cc(C(=O)O)c(NCc2ccco2)cc1Cl` [Furosemide], the ISRE reporter is 0.909.

`CC(C)(C)C1NC(=O)OC2CCCC2OC/C=C/C(F)(F)c2nc3ccccc3nc2OC2CC(C(=O)NC3(C(=O)NS(=O)(=O)C4(C)CC4)CC3C(F)F)N(C2)C1=O` (stereo not given) [Glecaprevir] showed an ISRE reporter of 1.1.

Take `CC(=O)O.NCc1ccc(S(N)(=O)=O)cc1` [Mafenide Acetate]: the ISRE reporter came out at 0.911. The molecule `CC(C)NCC(O)COc1ccc(CCOCC2CC2)cc1.Cl` (stereo not given) [Levobetaxolol HCl] displayed an ISRE reporter of 0.718. Molecule `CC(=O)O.N=C(N)NCCCC(NC(=O)C1CCCN1C(=O)C1CSSCCC(=O)NC(Cc2ccc(O)cc2)C(=O)NC(Cc2ccccc2)C(=O)NC(CCC(N)=O)C(=O)NC(CC(N)=O)C(=O)N1)C(=O)NCC(N)=O` (stereo not given) [Desmopressin Acetate] yielded an ISRE reporter of 0.565.

Molecule `CCn1cc(C(=O)O)c(=O)c2cnc(N3CCCC3)nc21` [Piromidic Acid] displayed an ISRE reporter of 0.877. `CC(C)(C)NCC(O)COc1nsnc1N1CCOCC1.O=C(O)/C=C\C(=O)O` (stereo not given) [Timolol Maleate] yielded an ISRE reporter of 0.716. On to `C[N+](C)(C)CCO.Cn1c(=O)c2[n-]cnc2n(C)c1=O` [Oxtriphylline], for which the ISRE reporter turned out to be 0.308. The molecule `CCC1OC(=O)C(C)C(OC2CC(C)(OC)C(O)C(C)O2)C(C)C(OC2OC(C)CC(N(C)C)C2O)C(C)(O)CC(C)CN(C)C(C)C(O)C1(C)O` (stereo not given) [Azithromycin] registered an ISRE reporter of 1.62. With `O=Cc1ccc(CO)o1` [5-Hydroxymethylfurfural], the ISRE reporter came to 0.681. Molecule `CC(C)C(NC(=O)C(CC(=O)O)NC(=O)C(CCCCN)NC(=O)C(N)CCCNC(=N)N)C(=O)NC(Cc1ccc(O)cc1)C(=O)O` (stereo not given) [Thymopentin] yielded an ISRE reporter of 0.767. The figure for `CC=Cc1ccc(OC)cc1` (stereo in doubt) [cis-Anethole] is 0.595; for `CCN1CC(CCN2CCOCC2)C(c2ccccc2)(c2ccccc2)C1=O.Cl.O` (stereo not given) [Doxapram HCl] it is 0.753; for `NC(=O)c1cn(Cc2c(F)cccc2F)nn1` [Rufinamide] it is 0.904.

The values are drawn from the supplement of paper PMC9174493.
